# Experimental data taken from the supplement of paper PMC4967469.
# Tests used:
# Experiment in all cases: Viability of human cancer cell lines after 72 h of drug (GDSC screen)
# ZM-447439 = compound: COc1cc2c(Nc3ccc(NC(=O)c4ccccc4)cc3)ncnc2cc1OCCCN1CCOCC1 [ZM-447439]; conditions: top dose inferred
# Experimental: (§1)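 Human cancer cell lines in 384-well plates, medium with 10% serum, drug for 72 h over a 256-fold dose range (nine 2-fold or five 4-fold steps up to the top dose). Adherent lines were fixed and stained with the nucleic acid dye Syto60, suspension lines read with resazurin; signal relative to control wells, capped at 0 and 100%. One two-parameter sigmoid per drug and line, fitted in a mixed model over all curves with the slope shared within a line.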
# AZD6244 = compound: Cn1cnc2c(F)c(Nc3ccc(Br)cc3Cl)c(C(=O)NOCCO)cc21 [AZD6244]; conditions: screen: GDSC drug entry 1062
# Experimental: as §1
# PD-0332991 = compound: CC(=O)c1c(C)c2cnc(Nc3ccc(N4CCNCC4)cn3)nc2n(C2CCCC2)c1=O [PD-0332991]
# Experimental: as §1
Cell Line,AUC (ZM-447439),IC50 (ZM-447439) [µM],AUC (AZD6244),IC50 (AZD6244) [µM],AUC (PD-0332991),IC50 (PD-0332991) [µM]
"22RV1 (prostate, adherent, top dose 4 µM)",0.964,> 4,0.929,> 4,,
"451Lu (melanoma, adherent, top dose 4 µM)",,,0.976,> 4,0.856,3.01
"A549 (lung adenocarcinoma, adherent, top dose 4 µM)",0.942,> 4,0.972,> 4,,
"A704 (kidney, adherent, top dose 4 µM)",,,0.985,> 4,0.96,> 4
"BT-20 (breast, adherent, top dose 4 µM)",0.935,> 4,0.94,> 4,,
"CAL-78 (chondrosarcoma, adherent, top dose 4 µM)",0.986,> 4,0.986,> 4,,
"CHSA0011 (chondrosarcoma, adherent, top dose 4 µM)",,,0.955,> 4,0.934,> 4
"DU-4475 (breast, suspension, top dose 4 µM)",0.929,> 4,0.976,> 4,,
"EFM-192A (breast, adherent, top dose 4 µM)",,,0.941,> 4,0.934,> 4
"EKVX (lung adenocarcinoma, adherent, top dose 4 µM)",,,0.902,> 4,0.932,> 4
"EN (endometrium, adherent, top dose 4 µM)",,,0.984,> 4,0.984,> 4
"H513 (mesothelioma, semi-adherent, top dose 4 µM)",0.985,> 4,0.986,> 4,,
"H3118 (head and neck, adherent, top dose 4 µM)",,,0.926,> 4,0.664,0.75
"HA7-RCC (kidney, adherent, top dose 4 µM)",,,0.985,> 4,0.797,2.11
"HCC1500 (breast, adherent, top dose 4 µM)",0.982,> 4,0.977,> 4,,
"HCC1806 (breast, adherent, top dose 4 µM)",0.898,> 4,0.921,> 4,,
"HCC-366 (non-small cell lung carcinoma, adherent, top dose 4 µM)",,,0.988,> 4,0.972,> 4
"HCT-116 (large intestine, adherent, top dose 4 µM)",0.761,1.36,0.702,0.897,,
"HD-MY-Z (Hodgkin lymphoma, adherent, top dose 4 µM)",,,0.98,> 4,0.884,> 4
"HT55 (large intestine, adherent, top dose 4 µM)",,,0.99,> 4,0.957,> 4

Cell Line,AUC (ZM-447439),IC50 (ZM-447439) [µM],AUC (AZD6244),IC50 (AZD6244) [µM],AUC (PD-0332991),IC50 (PD-0332991) [µM]
"HUTU-80 (digestive system, adherent, top dose 4 µM)",0.717,0.905,0.991,> 4,,
"HeLa (cervix, adherent, top dose 4 µM)",,,,,0.986,> 4
"IGR-37 (melanoma, adherent, top dose 4 µM)",0.927,> 4,0.223,0.0426,,
"Jurkat (T-cell leukaemia, suspension, top dose 4 µM)",0.993,> 4,0.975,> 4,,
"L-363 (myeloma, suspension, top dose 4 µM)",0.898,3.84,0.965,> 4,,
"MCF7 (breast, adherent, top dose 4 µM)",0.96,> 4,0.981,> 4,,
"MDA-MB-231 (breast, adherent, top dose 4 µM)",0.94,> 4,0.845,3.14,,
"MDA-MB-453 (breast, adherent, top dose 4 µM)",0.976,> 4,0.985,> 4,,
"MDA-MB-468 (breast, adherent, top dose 4 µM)",0.904,> 4,0.962,> 4,,
"MKN1 (stomach, adherent, top dose 2 µM)",0.947,> 2,,,,
"MMAC-SF (melanoma, adherent, top dose 2 µM)",0.954,> 2,,,,
"MOLM-13 (acute myeloid leukaemia, suspension, top dose 4 µM)",0.692,0.828,0.972,> 4,,
"MV-4-11 (leukaemia, suspension, top dose 4 µM)",0.69,0.761,0.952,> 4,,
"NCI-H358 (lung adenocarcinoma, adherent, top dose 2 µM)",0.911,> 2,,,,
"NCI-H1437 (lung adenocarcinoma, adherent, top dose 4 µM)",0.908,> 4,0.947,> 4,,
"NCI-H1568 (lung adenocarcinoma, adherent, top dose 4 µM)",0.917,> 4,0.936,> 4,,
"NCI-H1648 (lung adenocarcinoma, adherent, top dose 2 µM)",0.943,> 2,,,,
"NCI-H1838 (lung adenocarcinoma, adherent, top dose 2 µM)",0.983,> 2,,,,
"NCI-H2030 (lung adenocarcinoma, adherent, top dose 2 µM)",0.96,> 2,,,,
"NCI-H2110 (non-small cell lung carcinoma, adherent, top dose 4 µM)",0.964,> 4,0.936,> 4,,

Cell Line,AUC (ZM-447439),IC50 (ZM-447439) [µM],AUC (AZD6244),IC50 (AZD6244) [µM],AUC (PD-0332991),IC50 (PD-0332991) [µM]
"NCI-H2172 (non-small cell lung carcinoma, adherent, top dose 4 µM)",0.979,> 4,0.967,> 4,,
"NCI-H3122 (lung adenocarcinoma, adherent, top dose 4 µM)",0.947,> 4,0.896,> 4,,
"OVCAR-3 (ovary, adherent, top dose 4 µM)",0.897,> 4,0.969,> 4,,
"OVTOKO (ovary, adherent, top dose 4 µM)",0.866,> 4,0.857,> 4,,
"RERF-GC-1B (stomach, adherent, top dose 2 µM)",0.96,> 2,,,,
"RH-41 (rhabdomyosarcoma, adherent, top dose 2 µM)",0.961,> 2,,,,
"SK-MEL-2 (melanoma, adherent, top dose 4 µM)",0.936,> 4,,,,
"SK-MEL-28 (melanoma, adherent, top dose 2 µM)",0.981,> 2,,,,
"SK-MEL-30 (melanoma, adherent, top dose 2 µM)",0.973,> 2,,,,
"SK-UT-1 (soft tissue, adherent, top dose 2 µM)",0.885,1.85,,,,
"SU8686 (pancreas, adherent, top dose 2 µM)",0.985,> 2,,,,
"SW13 (adrenal gland, adherent, top dose 2 µM)",0.987,> 2,,,,
"SW900 (lung squamous cell carcinoma, adherent, top dose 2 µM)",0.962,> 2,,,,
"SW1417 (large intestine, adherent, top dose 4 µM)",0.972,> 4,,,,
"SW1573 (lung adenocarcinoma, adherent, top dose 4 µM)",0.909,> 4,0.938,> 4,,
"T47D (breast, adherent, top dose 4 µM)",0.924,> 4,0.966,> 4,,
"THP-1 (acute myeloid leukaemia, suspension, top dose 4 µM)",0.991,> 4,,,,
"TT (thyroid, adherent, top dose 2 µM)",0.927,> 2,,,,
"U031 (kidney, adherent, top dose 2 µM)",0.941,> 2,,,,
"UACC-893 (breast, adherent, top dose 2 µM)",0.967,> 2,,,,

# By IC50 is meant the dose at which the fit gives 50% viability; a limit (>, <) means that the fit lies beyond the doses tested. AUC sums up the same curve from the lowest dose to the 256-fold higher top dose; values near 1 show little effect. For part of these data: Any top dose called inferred was derived from the fitted curves, not read from the paper. For part of these data: Where an entry number is given, a second screen of the drug exists; the two often differ.
